{
  "source": "patent US6528630B1",
  "about": "(priority 1997, dated 2003)",
  "key": {"[1]": {"molecular_target": "T1, human neuronal calcium channel α1D, α2 and β1 subunits (Homo sapiens, UniProt Q01668)", "T1 sequence (Q01668 whole entry)": "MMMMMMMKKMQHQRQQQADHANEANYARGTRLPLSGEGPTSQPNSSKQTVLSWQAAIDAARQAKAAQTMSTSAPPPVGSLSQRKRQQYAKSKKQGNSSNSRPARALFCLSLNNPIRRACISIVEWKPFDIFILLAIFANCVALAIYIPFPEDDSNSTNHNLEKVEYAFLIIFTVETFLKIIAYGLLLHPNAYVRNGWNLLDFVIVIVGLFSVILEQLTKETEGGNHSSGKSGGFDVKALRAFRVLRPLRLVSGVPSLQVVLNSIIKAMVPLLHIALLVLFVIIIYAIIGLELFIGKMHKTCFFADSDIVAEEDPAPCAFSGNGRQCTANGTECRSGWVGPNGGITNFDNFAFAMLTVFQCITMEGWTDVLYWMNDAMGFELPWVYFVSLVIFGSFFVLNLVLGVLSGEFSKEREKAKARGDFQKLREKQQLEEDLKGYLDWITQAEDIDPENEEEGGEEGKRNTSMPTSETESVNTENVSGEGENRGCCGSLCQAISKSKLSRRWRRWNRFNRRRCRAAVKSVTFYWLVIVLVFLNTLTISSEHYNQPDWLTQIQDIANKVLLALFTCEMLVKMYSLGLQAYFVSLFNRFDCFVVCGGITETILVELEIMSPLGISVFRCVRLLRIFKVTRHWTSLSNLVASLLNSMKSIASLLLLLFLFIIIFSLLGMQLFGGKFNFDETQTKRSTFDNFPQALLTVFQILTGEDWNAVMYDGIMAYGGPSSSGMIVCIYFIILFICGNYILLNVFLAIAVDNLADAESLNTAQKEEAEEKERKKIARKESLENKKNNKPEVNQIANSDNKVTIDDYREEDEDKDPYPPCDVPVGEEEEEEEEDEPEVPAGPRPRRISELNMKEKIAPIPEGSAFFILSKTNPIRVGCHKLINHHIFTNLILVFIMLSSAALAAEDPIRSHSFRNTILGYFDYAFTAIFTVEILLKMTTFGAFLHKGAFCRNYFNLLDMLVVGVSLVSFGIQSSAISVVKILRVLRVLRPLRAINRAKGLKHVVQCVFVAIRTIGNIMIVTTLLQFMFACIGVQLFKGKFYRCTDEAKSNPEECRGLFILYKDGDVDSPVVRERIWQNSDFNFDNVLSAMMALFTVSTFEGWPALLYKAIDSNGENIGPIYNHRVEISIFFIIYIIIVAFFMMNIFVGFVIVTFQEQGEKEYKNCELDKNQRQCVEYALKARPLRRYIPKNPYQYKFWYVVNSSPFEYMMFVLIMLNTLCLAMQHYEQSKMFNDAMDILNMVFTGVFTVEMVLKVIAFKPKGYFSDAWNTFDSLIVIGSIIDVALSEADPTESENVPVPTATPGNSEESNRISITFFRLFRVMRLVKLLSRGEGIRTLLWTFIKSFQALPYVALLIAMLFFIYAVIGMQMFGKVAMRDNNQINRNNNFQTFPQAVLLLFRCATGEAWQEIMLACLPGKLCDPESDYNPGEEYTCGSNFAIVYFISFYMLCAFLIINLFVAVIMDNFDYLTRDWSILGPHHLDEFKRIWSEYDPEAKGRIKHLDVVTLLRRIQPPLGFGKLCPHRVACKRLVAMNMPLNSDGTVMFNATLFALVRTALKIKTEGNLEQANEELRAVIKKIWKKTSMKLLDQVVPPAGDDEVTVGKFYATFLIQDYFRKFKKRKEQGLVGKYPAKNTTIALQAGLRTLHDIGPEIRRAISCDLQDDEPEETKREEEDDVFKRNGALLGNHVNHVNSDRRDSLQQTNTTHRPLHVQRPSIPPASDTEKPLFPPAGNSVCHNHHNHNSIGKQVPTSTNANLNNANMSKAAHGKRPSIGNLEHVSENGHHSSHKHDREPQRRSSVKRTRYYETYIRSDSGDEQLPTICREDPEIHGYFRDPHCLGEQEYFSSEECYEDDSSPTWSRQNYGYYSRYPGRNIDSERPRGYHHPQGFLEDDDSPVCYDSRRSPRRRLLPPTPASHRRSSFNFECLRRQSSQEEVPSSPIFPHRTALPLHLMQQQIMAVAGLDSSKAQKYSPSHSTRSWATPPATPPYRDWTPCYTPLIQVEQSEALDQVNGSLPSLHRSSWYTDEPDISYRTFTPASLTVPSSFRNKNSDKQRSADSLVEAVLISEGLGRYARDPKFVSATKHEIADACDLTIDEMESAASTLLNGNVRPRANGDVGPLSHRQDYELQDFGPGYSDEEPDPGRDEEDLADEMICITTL", "conditions": "1 μM Bay K 8644"}, "[2]": {"molecular_target": "human neuronal calcium channel α1D and β1 subunits (Homo sapiens, UniProt Q01668)", "sequence (Q01668 10-2161)": "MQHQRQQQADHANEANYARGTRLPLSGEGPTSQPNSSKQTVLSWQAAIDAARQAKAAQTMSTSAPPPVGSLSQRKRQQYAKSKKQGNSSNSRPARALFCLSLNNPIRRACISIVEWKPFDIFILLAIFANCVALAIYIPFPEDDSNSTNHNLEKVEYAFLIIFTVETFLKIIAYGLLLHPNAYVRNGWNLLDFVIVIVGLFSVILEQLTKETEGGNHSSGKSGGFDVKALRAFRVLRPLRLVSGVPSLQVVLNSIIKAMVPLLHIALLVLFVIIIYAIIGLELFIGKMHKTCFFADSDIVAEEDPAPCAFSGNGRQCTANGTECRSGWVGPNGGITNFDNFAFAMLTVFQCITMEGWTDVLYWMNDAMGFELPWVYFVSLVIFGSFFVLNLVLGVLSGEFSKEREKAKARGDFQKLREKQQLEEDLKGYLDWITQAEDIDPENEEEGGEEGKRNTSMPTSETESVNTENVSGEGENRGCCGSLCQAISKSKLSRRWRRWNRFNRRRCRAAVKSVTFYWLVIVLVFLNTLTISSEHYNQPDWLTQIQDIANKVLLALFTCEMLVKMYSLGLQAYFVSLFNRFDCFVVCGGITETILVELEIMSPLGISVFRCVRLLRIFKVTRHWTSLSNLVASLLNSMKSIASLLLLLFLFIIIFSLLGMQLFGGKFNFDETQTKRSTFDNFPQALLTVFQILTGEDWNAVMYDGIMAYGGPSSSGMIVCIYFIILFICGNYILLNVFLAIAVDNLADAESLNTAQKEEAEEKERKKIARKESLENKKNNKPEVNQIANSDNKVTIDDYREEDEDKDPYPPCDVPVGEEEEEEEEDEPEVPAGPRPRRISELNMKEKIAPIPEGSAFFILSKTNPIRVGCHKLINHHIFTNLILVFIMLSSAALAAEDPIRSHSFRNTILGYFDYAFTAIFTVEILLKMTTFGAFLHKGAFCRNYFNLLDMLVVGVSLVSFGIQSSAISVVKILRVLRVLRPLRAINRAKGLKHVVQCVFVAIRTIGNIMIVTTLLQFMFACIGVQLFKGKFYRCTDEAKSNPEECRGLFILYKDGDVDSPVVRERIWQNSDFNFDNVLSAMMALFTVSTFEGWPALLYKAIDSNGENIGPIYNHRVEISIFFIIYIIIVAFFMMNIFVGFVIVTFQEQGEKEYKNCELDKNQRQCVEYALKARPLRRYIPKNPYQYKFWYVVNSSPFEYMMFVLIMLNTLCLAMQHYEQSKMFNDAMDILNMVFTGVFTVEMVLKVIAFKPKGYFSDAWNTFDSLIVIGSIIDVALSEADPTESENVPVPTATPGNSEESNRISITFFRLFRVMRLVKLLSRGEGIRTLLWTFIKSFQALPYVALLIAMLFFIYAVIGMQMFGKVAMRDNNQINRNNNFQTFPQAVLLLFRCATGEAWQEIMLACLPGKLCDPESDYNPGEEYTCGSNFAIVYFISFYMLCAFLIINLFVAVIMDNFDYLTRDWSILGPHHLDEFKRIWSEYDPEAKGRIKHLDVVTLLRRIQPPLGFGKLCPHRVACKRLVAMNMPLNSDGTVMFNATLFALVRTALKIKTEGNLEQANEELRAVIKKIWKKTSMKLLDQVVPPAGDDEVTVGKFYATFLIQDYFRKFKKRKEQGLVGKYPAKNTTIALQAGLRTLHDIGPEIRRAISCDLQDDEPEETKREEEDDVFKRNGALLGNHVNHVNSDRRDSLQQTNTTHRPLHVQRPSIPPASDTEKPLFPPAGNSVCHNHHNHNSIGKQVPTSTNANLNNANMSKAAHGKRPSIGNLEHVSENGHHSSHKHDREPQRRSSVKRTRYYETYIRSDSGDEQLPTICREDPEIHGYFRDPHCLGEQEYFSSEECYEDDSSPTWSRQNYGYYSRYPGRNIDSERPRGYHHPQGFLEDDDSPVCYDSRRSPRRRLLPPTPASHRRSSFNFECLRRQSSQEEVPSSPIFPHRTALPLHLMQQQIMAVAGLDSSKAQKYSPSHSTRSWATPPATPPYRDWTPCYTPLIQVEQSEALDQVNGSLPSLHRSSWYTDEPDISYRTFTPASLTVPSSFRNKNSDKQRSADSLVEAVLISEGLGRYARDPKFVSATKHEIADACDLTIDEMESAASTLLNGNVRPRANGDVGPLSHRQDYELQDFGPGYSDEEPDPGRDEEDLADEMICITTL", "sequence (Q02641 1-478 isoform Q02641-3 partner)": "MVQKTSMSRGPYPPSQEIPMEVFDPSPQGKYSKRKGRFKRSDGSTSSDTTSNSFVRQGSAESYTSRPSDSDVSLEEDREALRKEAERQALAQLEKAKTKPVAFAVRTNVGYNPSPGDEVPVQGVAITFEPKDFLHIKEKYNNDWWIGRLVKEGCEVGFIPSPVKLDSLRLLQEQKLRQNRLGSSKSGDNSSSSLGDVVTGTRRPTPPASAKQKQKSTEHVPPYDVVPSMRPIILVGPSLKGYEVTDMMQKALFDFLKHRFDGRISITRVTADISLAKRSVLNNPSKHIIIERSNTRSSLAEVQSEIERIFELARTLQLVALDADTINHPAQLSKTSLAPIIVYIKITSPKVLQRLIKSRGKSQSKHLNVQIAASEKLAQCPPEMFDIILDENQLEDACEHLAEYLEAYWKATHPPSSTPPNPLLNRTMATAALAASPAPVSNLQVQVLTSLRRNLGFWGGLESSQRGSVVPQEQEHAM", "assay": "Two-electrode voltage clamp of Xenopus oöcytes injected with α1D and β1 transcripts", "conditions": "two of the four oöcytes"}, "[3]": {"molecular_target": "T1, human neuronal calcium channel α1D, α2 and β1 subunits", "type": "cell-based", "set-up": "The full-length α1D cDNA from pVDCCIII(A); expressed in transfected cells; host or cells: HEK 293 (transient)"}},
  "data": [
    {"smiles": "COC(=O)C1=C(C)NC(C)=C([N+](=O)[O-])C1c1ccccc1C(F)(F)F", "note": "(stereo not shown) [Bay K 8644]", "values": [
      {"measurement": "shift of current-voltage relation", "setting": "[1]", "result": "about −10 mV"},
      {"measurement": "tail current", "setting": "[1]", "result": "augmented and prolonged tail current"},
      {"measurement": "barium current during application", "setting": "[1]; depolarized to −10 mV from holding potential −90 mV (approximately 35 pA in its absence)", "result": "approximately 75 pA"},
      {"measurement": "sensitivity of Ba2+ currents to Bay K 8644 compared with α1D, α2 and β1 oöcytes", "setting": "[2]", "result": "similar"},
      {"measurement": "effect on inward barium current", "setting": "[3]", "result": "significantly enhanced in magnitude"},
      {"measurement": "largest inward barium current", "setting": "[3]", "result": "~160", "unit": "pA"},
      {"measurement": "tail currents", "setting": "[3]", "result": "Pronounced tail currents"}
    ]}
  ]
}
